# Hit rate of the full screen: of about 390,000 compounds, about 910 (0.23%) were called active. Roughly 5% stayed inconclusive and do not appear here. The call rests on the fitted dose curve; in most records, active means well fitted inhibition curve with a large enough effect; inconclusive means small, poorly fitted or top-dose-only effect; inactive means no such curve, though single readings can be large or run the other way. Only a part is listed here, and it is no random draw.
# Target: Ubiquitin carboxyl-terminal hydrolase 1 (Homo sapiens) (UniProt O94782)
# Assay: Inhibitors of USP1/UAF1: Primary Screen; further: nearly all actives have a fitted effect of over 60% in size
# Conditions: recombinant USP1/UAF1, Ub-Rhodamine cleavage fluorescence; activity change, negative = inhibition: at 57.1 µM (top of the series)
# In short: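 USP1/UAF1 complex at 1 nM was preincubated with compound for 15 min at room temperature, then Ub-Rho substrate (150nM final) was added. Fluorescence (480/540 nm) was read kinetically, 6 reads every 60 seconds.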
# On the % scale 0 is the no-effect control and ±100 the full control effect; potency means the concentration at half of the fitted maximal effect.
# Sequence of UniProt O94782 (O94782 whole entry, looked up): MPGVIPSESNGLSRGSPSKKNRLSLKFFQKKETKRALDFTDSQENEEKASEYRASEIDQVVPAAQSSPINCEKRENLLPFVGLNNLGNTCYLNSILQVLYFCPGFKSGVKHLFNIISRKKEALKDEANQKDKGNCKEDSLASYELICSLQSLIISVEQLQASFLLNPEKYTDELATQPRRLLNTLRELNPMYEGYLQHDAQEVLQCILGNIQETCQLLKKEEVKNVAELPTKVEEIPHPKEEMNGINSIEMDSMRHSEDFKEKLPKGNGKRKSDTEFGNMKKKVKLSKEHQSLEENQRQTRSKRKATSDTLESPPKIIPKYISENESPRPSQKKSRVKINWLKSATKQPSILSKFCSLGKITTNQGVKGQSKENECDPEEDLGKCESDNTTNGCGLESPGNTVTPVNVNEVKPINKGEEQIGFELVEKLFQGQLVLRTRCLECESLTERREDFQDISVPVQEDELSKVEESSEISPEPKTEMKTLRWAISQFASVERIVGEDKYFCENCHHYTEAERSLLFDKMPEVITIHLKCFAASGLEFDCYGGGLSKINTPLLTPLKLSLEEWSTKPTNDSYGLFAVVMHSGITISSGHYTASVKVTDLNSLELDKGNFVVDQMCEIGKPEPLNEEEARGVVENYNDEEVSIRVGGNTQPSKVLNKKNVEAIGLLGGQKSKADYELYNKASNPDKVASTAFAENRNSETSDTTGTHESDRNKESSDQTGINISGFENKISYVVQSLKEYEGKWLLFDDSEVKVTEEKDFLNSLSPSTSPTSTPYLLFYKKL
SMILES,"activity change, negative = inhibition",Potency
O=C(NCc1ccccc1)C1=C[C@@H](C2CC2)C[C@@H](OCc2ccc(CO)cc2)O1,inactive: -13.4%,–
C/C=C(\C)C(=O)NCCN1C2=NC[C@H](C)N2C[C@@H]1Cc1ccc(OC)cc1,inactive: -19%,–
CC1(C)S[C@@H]2[C@H](NC(=O)[C@H](N)c3ccccc3)C(=O)N2[C@H]1C(=O)O,inactive: -29.1%,–
COc1cc(/C=C/c2sc3ccccc3[n+]2CCCS(=O)(=O)[O-])ccc1O,–,active: 25.1 µM
O=C(C[C@H]1C/C=C/CC[C@H](Cc2ccc(F)cc2)C(=O)O[C@H](c2ccccc2)CNC1=O)NCCO,inactive: -13.3%,–
C=CCOc1ccc(C2C(C(=O)c3cccs3)=C(O)C(=O)N2c2nnc(C)s2)cc1 (stereo not drawn),inactive: 47.9%,–
COc1cccc(Nc2nnc(-c3cc4ccc(O)cc4oc3=O)s2)c1,inactive: 144%,–
Cc1ccc(NC(=O)CC2Oc3ccc(C)cc3NC2=O)c(C)c1 (stereo not drawn),inactive: -1.9%,–
OCC[C@@H]1C[C@H](O)[C@@H](O)[C@]2(CCCc3ccccc3O2)O1,inactive: -15.5%,–
N#Cc1c(N2CCCC2)nc(N)c2c(N)nc(N3CCCC3)cc12,–,active: 0.316 µM
O=C(C1=C[C@H](c2csc3ccccc23)C[C@H](OCc2ccc(CO)cc2)O1)N1CCN(Cc2ccccc2)CC1,inactive: -22.9%,–
O=C(Nc1ccccc1)C1=C[C@@H](c2ccc(C(F)(F)F)cc2)C[C@@H](OCc2ccc(CO)cc2)O1,inactive: -16.7%,–
O=C(C1=NN(c2ccccc2)C2C(=O)N(c3ccccc3Cl)C(=O)C12)c1ccccc1 (stereo not drawn),inactive: 29%,–
COc1ccc(NC(=O)CNC(=O)Cn2c(C)cc3ccccc3c2=O)c(OC)c1,inactive: -16.1%,–
CCN1CCN(Cc2ccc(NC(=O)c3ccc(C)c(/C=C/c4cnc(Nc5cc(N6CCNCC6)nc(C)n5)cn4)c3)cc2C(F)(F)F)CC1,inactive: -21.3%,–
CCO[C@H]1OC(C(=O)NC2CC2)=C[C@@H](C2CC2)[C@@H]1CCCO,inactive: -25.3%,–
Cc1c(N2C(=O)/C(=C\c3cccc4ccccc34)SC2=S)c(=O)n(-c2ccccc2)n1C,inactive: -7.23%,–
C[C@H](CO)N1C[C@H](C)[C@@H](CN(C)S(=O)(=O)c2ccccc2)OCc2cn(nn2)CCCC1=O,inactive: -27.9%,–
O=C(N/N=C/c1c(O)n(Cc2ccccc2)c(=O)c2ccccc12)c1cccnc1,–,active: 25.1 µM
CCCCOC(=O)c1ccc(NC(=O)c2sc3nc(C)cc(C)c3c2N)cc1,inactive: 31.3%,–
O=C(NCc1nc2ccccc2[nH]1)C1=C[C@@H](c2ccc(Br)cc2)C[C@@H](OCc2ccc(CO)cc2)O1,inactive: 7.07%,–
COc1ccc(-n2nc3c(N4CCC(C(=O)NCc5ccccc5C)CC4)nnc(C)c3c2C)cc1,inactive: -22.3%,–
Cc1ccc(CNC(=O)c2cc(=O)c3cc(C)ccc3o2)cc1,inactive: -16.5%,–

# — PubChem BioAssay AID743255 (National Center for Advancing Translational Sciences (NCATS), 2014)
